Test results reported in PMC3418226.
Results are given in words; binding and its absence hold for the method and conditions named. For some assays here: In cells and extracts the contact can be indirect. Some entries that bind do so weakly or less than the wild type. For some assays here: Tags and fused reporters may be left off the sequences shown. Each block holds one binder with its values, some of them ahead of it.

The chains behind the UniProt entries cited, without tags or fusion partners.
UniProt P20963: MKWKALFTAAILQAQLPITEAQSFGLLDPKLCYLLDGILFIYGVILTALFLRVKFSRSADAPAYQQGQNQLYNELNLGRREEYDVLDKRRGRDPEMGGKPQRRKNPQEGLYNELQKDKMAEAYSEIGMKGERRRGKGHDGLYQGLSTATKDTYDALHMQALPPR

Experiments:
[1] = biological target: CD3ζ from activated T cells, tyrosine-phosphorylated p20-21 forms (human (endogenous in Jurkat and in T-cell blasts)) (UniProt P20963); assay: co-IP; lysate of Jurkat cells treated with 25 μM pervanadate 30 min, immunoprecipitated with anti-CD3ζ, blotted for SAP
[2] = biological target: CD3ζ from activated T cells, tyrosine-phosphorylated p20-21 forms (human (endogenous in Jurkat and in T-cell blasts)) (UniProt P20963); assay: far-Western, overlay or dot blot; anti-CD3ζ immunoprecipitate of pervanadate-treated Jurkat cells resolved by SDS-PAGE on PVDF; membrane incubated with purified GST-SAP at 1 μg/mL in TBS, 0.2% Tween, 3% BSA, 1.5 h; detected with anti-GST; both purified

binding [1]: binds
B1: SAP (endogenous, Jurkat cells) (protein, UniProt O60880 1-128)
chain: MDAVAVYHGKISRETGEKLLLATGLDGSYLLRDSESVPGVYCLCVLYHGYIYTYRVSQTETGSWSAETAPGVHKRYFRKIKNLISAFQKPDQGIVIPLQYPVEKKSSARSTQGTTGIREDPDVCLKAP

binding [2]: binds
B2: GST-SAP fusion protein (protein, UniProt O60880 1-128)
chain: B1 chain
